Measurements from patent US20030049702A1 (BURNHAM INSTITUTE, published 2003).

Biological target: myc-XIAP (from pcDNA3-myc-XIAP) (UniProt P98170)
Assay: anti-myc co-immunoprecipitation from transfected 293 cells, immunoblot

B1: DR5 (wild-type, expressed from pcDNA3) (receptor)
chain: not shown
- binding result: no binding
